Data taken from PubChem BioAssay AID720542 (National Center for Advancing Translational Sciences (NCATS), 2013).
Out of some 360,000 compounds screened, about 740 (0.21%) were called active. The shares of active, inactive and inconclusive entries below differ from those in the screen. The call rests on the fitted dose curve; in most records, active means well fitted inhibition curve with a large enough effect; inconclusive means small, poorly fitted or top-dose-only effect; inactive means no such curve, though single readings can be large or run the other way. No potency is given beside an inconclusive call; the fits are too rough.

system: Plasmodium falciparum AMA1 (3D7) - RON2 peptide interaction; test: qHTS for Inhibitors of AMA1-RON; Towards Development of Antimalarial Drug Lead: Primary Screen; conditions: AlphaScreen AMA1-biotinylated RON2 peptide binding; activity change, negative = inhibition: at 58.2 µM (top of the series) unless noted; further: nearly all actives have a fitted effect of over 45% in size;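 on activity change, negative = inhibition: 0% = vehicle wells and -100% = peptide control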
Outline: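 AMA1 (3D7) with his tag at 25 nM final met compounds first, then biotinylated RON2 peptide at 25 nM; detection used donor plus acceptor beads, 10 µg/mL apiece, read by AlphaScreen after 30 min at room temperature.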
Potency means the concentration at half of the fitted maximal effect; tags describe the fitted curve by direction and shape.

| Compound | Potency | activity change, negative = inhibition |
| --- | --- | --- |
| COCC(=O)Nc1ccc(OCc2ccccc2)cc1 | inactive | – |
| Cc1cc(O)c(NC(=O)c2cccc([N+](=O)[O-])c2)cc1C | inactive | – |
| Cc1nc2ccc([N+](=O)[O-])cc2[nH]1 | inconclusive [inhibitor, partial curve] | – |
| O=C(Cn1nc(C(F)(F)F)c2c1CCC2)NCc1ccc(Cl)cc1 | inactive | – |
| COc1ccc(CNc2ncc(-c3ccccc3)n2C)c(OC)c1OC | inconclusive [inhibitor, partial curve] | – |
| O=C1c2ccccc2C(Nc2cccnc2)N1Cc1ccccc1 (stereo not given) | inconclusive [inhibitor, single point] | – |
| CCOC(=O)c1oc2ccccc2c1CSc1nnnn1-c1ccc(C)cc1 | inconclusive [inhibitor, single point] | – |
| Cc1ccc2nc(N(CCCN(C)C)C(=O)c3ccc(Br)s3)sc2c1 | inactive | – |
| CCn1c(-c2ccc3[nH]c(C)c(C)c3c2)n[nH]c1=S | inactive | – |
| COc1ccc(Nc2c([N+](=O)[O-])ccc3c2=NC2(CCCCC2)N=3)cc1 | active: 8.91 µM | – |
| CCN(CC)CCCNc1nc(N)c([N+](=O)[O-])c(N2CCCCCC2)n1 | inactive | – |
| COCCCNC(=O)/C(C#N)=C/c1c(N2CCN(c3ccc(OC)cc3)CC2)nc2c(C)cccn2c1=O | inconclusive [inhibitor, single point] | – |
| O=[N+]([O-])c1ccc(-c2cnc(SC(c3ccccc3)c3ccccc3)[nH]2)cc1 | inconclusive [inhibitor, partial curve, poor fit] | – |
| COc1cc(C2C3=C(CCCC3=O)OC3=C2C(=O)CCC3)ccc1OCC(=O)Nc1ccccc1 | inconclusive [inhibitor, partial curve] | – |
| O=[N+]([O-])c1ccc(-c2cn3nc(-c4ccccc4)c(-c4ccccc4)nc3n2)cc1 | inconclusive [inhibitor, full curve, poor fit] | – |
| COc1ccc(Cl)cc1NC(=S)N(CCCN1CCOCC1)Cc1cn(C)c2ccccc12 | inconclusive [inhibitor, partial curve, poor fit] | – |
| CCC(=NCc1ccc2c(c1)OCO2)c1c(O)n(C)c(=O)n(C)c1=O | inconclusive [inhibitor, partial curve] | – |
| COc1ccccc1N1CCN(Cc2cccc(Br)c2)CC1 | inconclusive [inhibitor, partial curve] | – |
| Cc1cc(N2CCN(c3ccccn3)CC2)n2cc(-c3ccccc3)nc2n1 | inconclusive [inhibitor, full curve, poor fit] | – |
| COc1ccc(S(=O)(=O)NCCC(=O)N2CCCN(C)CC2)cc1 | inactive | – |
| O=C(NCC(c1cccs1)N1CCOCC1)c1ccc(OCc2ccccc2)cc1 (stereo not given) | inactive | – |
| CC1=C(C)/C(=N\OS(=O)(=O)c2ccc(C)cc2)C=CC1=O | inconclusive [inhibitor, partial curve, poor fit] | – |
| CCOc1ccc2[nH]c(=O)c(CN(CCc3ccccc3)C(=O)c3cnccn3)cc2c1 | inactive | – |
| CCSc1nc2ccccc2c(=O)n1CCc1ccc(OC)c(OC)c1 | inactive | – |

| Compound | Potency | activity change, negative = inhibition |
| --- | --- | --- |
| c1ccc(-c2ccccc2OCCCCn2ccnc2)cc1 | inconclusive [inhibitor, partial curve] | – |
| CCc1ccc(N2C(=O)NC(=O)C(Cc3ccc(OC)cc3OC)C2=O)cc1 (stereo not given) | inconclusive [inhibitor, single point] | – |
| COc1cc(/C=C(\C#N)C(=O)NCC2CCCO2)ccc1OC(C)C (stereo not given) | inconclusive [inhibitor, full curve, poor fit] | – |
| Clc1ccc(SCCCCN2CCNCC2)cc1 | inconclusive [inhibitor, partial curve] | – |
| CCOC(=O)c1cccc(OCC(O)CNCCOc2ccccc2F)c1 (stereo not given) | inconclusive [inhibitor, partial curve] | – |
| CCN1CCN(CCCNC(=O)C2CCCN(c3nnc(-n4cccc4)s3)C2)CC1 (stereo not given) | inactive | – |
| Nc1nncn1C(=O)c1ccccc1Cl | inconclusive [inhibitor, single point] | – |
| Cc1cccc(C(=O)NNC(=O)c2cccc(C)c2)c1 | inactive | – |
| O=C(C[C@H]1C[C@H](C(=O)N2CCOCC2)[C@@]2(CCC3CCCC3)c3[nH]c4cc(-c5ccco5)ccc4c3CCN2C1=O)NCc1ccco1 | inconclusive [inhibitor, partial curve] | – |
| Cc1ccc(C(=O)Nc2sc3c(c2C(=O)O)CCCCC3)o1 | inactive | – |
| CC(OC(=O)c1ccco1)C(=O)NCc1cccs1 (stereo not given) | inactive | – |
| O=C1/C(=C/c2ccccc2Cl)SC(=S)N1CCCC(=O)N(CCO)c1ccccc1 | inconclusive [inhibitor, single point] | – |
| COc1cc2c(cc1OC)C(c1ccccc1[N+](=O)[O-])=NCC2 | inactive | – |
| Cc1c(NC(=O)c2ccc3c(c2)OCO3)c(=O)n(-c2ccccc2)n1C | inconclusive [inhibitor, single point] | – |
| CCc1ccc(-n2c(=S)sc3c(=O)n(-c4ccccc4OC)c(=S)[nH]c32)cc1 | inconclusive [inhibitor, single point] | – |
| CN1CCN(c2nc(Nc3cccc(C(F)(F)F)c3)nc(N3CCOCC3)n2)CC1 | – | inconclusive: -33.1% [inhibitor] |
| Cc1cccc(N(C(=O)c2snc(C(N)=O)c2N)C(C(=O)NCC2CCCO2)c2ccc(N(C)C)cc2)c1 (stereo not given) | inactive | – |
| COc1ccc(OC)c(Nc2nc(-c3sc(C)nc3C)cs2)c1 | inconclusive [inhibitor, partial curve] | – |
| Cc1ccc(-c2nnc(SCC#CCOC(=O)c3cccs3)o2)cc1 | inactive | – |
| CN1CC(c2ccccn2)C2(SC(=S)N(Cc3ccccc3)C2=O)C12C(=O)Nc1ccccc12 (stereo not given) | inconclusive [inhibitor, single point] | – |
| O=C(NN1C(=O)/C(=C/c2ccc(O)c(O)c2)SC1=S)c1ccccc1 | inconclusive [inhibitor, partial curve, poor fit] | – |
| CN(C)S(=O)(=O)c1cccc(NC(=O)CCCC2CCCCC2)c1 | inactive | – |
| CN(CC(=O)Nc1ccc(Cl)c(Cl)c1)C1CCCCC1 | inconclusive [inhibitor, partial curve] | – |
| COc1ccc(-c2nc3cc(C)c(Br)c(C)n3c2Cc2cccc(F)c2)cc1OC | inconclusive [inhibitor, partial curve] | – |

| Compound | Potency | activity change, negative = inhibition |
| --- | --- | --- |
| C/C(=N\Nc1nc2ccccc2s1)c1cccs1 | inconclusive [inhibitor, partial curve] | – |
| COCCCNCCCCOc1ccccc1-c1ccccc1 | inconclusive [inhibitor, single point] | – |
| O=C(C1CCCO1)N1CCN(c2ncccn2)CC1 (stereo not given) | inconclusive [inhibitor, single point] | – |
| O=C(Nc1cccnc1)c1cc(-c2ccc(Cl)cc2)on1 | inconclusive [inhibitor, single point] | – |
| COc1cc(O)c(CCC(=O)c2cc(OC)c(OC)c(OC)c2)c(OC)c1 | inactive | – |
| O=C(Cc1cn(Cc2cccc(Cl)c2)c2ccccc12)N1CCCCCC1 | inconclusive [inhibitor, single point] | – |
| Cc1ccc2nc(-c3cccc(N)c3)[nH]c2c1 | inconclusive [inhibitor, single point] | – |
| CC1(Cc2ccccc2OC(F)(F)F)C(=O)Nc2c(Cl)ccc(Cl)c21 (stereo not given) | inactive | – |
| O=C1OC(c2ccccc2)=C/C1=C/c1cccs1 | inconclusive [inhibitor, full curve] | – |
| O=C(CNCc1ccccc1Cl)Nc1ccc2c(c1)OCCO2 | inconclusive [inhibitor, partial curve] | – |
| COc1cccc(NS(=O)(=O)c2ccc3c(c2)C2C=CCC2C(c2ccc(C(=O)O)cc2)N3)c1 (stereo not given) | inconclusive [inhibitor, single point] | – |
| CCn1cnc2sc(C(=O)N(Cc3ccc(N(C)C)cc3)Cc3ccco3)c(C)c2c1=O | inconclusive [inhibitor, single point] | – |
| COC/C=C/C1=CC2=CC(=O)C(C)(OC(=O)c3cnc4ccccc4n3)C(=O)C2=CN1c1ccccc1 (stereo not given) | inconclusive [inhibitor, single point] | – |
| O=C(c1ccccc1)c1ccc(OCC(O)CNCc2ccc(Cl)cc2)cc1 (stereo not given) | inconclusive [inhibitor, single point] | – |
| COC(CNC(=O)[C@H](Cc1ccccc1)N1Cc2ccccc2C1=O)OC | inactive | – |
| COc1ccc(S(=O)(=O)N2CCOCC2)cc1C(=O)Nc1nc2ccccc2s1 | inconclusive [inhibitor, partial curve] | – |
| COc1ccccc1C(=O)NC(CCSC)C(=O)NC1CCCCCC1 (stereo not given) | inconclusive [inhibitor, single point] | – |
| COc1cccc(CNC(=O)C2CCCN(S(=O)(=O)c3cnc[nH]3)C2)c1 (stereo not given) | inactive | – |
| CCN(c1ccc(NC(=O)c2cccc(S(=O)(=O)N3CCN(C)CC3)c2)cc1)C(C)C | inconclusive [inhibitor, partial curve] | – |
| Cc1cccc(NC2=C(NCCO)C(=O)c3ccccc3C2=O)c1 | inconclusive [inhibitor, partial curve, poor fit] | – |
| CCOc1ccc(C(=O)NC(=S)Nc2cc(C)ccn2)cc1[N+](=O)[O-] | inactive | – |
| O=C(O)CCN1C(=O)C(=C2CCCCCC2)SC1=S | inactive | – |
